Reference: PubChem BioAssay AID1454 (National Center for Advancing Translational Sciences (NCATS), 2008)
Out of some 130,000 compounds screened, about 550 (0.42%) were called active. Inconclusive means that the source gave no clear call. Such entries were picked first, then a sample of the others. The call rests on the fitted dose curve; in most records, active means well fitted inhibition curve with a large enough effect; inconclusive means small, poorly fitted or top-dose-only effect, or effect the other way; inactive means flat fitted curve, though single readings scatter. Potencies of inconclusive entries are left out as doubtful fits.

Test: qHTS Assay for Inhibitors of the ERK Signaling Pathway using a Homogeneous Screening Assay; Stimulation with EGF; further: nearly all actives have a fitted effect of over 55% in size;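 on activity change, negative = inhibition: plate controls were stimulated vehicle wells for no effect and unstimulated vehicle basal for full effect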
Conditions: HEK293-V1b, EGF-stimulated phospho-ERK AlphaScreen; activity change, negative = inhibition: at the top concentration
Outline: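 After overnight plating in 1% FBS, HEK293-V1b cells received test compound for half an hour, then a 5 min pulse of EGF (25 nM); ERK phosphorylation in lysates was read by bead-based AlphaScreen.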
Tags describe the fitted curve by direction and shape.

For `COC(=O)[C@@]1(Cc2ccccc2)[C@H]2c3cc(C(=O)N(C)C)n(Cc4c(CO)[nH]cc(C)c4=O)c3C[C@H]2CN1C(=O)c1ccccc1`, which “activity change, negative = inhibition” value is on record?
Its value is inactive: 1.21%.

Which “activity change, negative = inhibition” value does the source give for `CC(C)c1nc2sc3c(=S)nc[nH]c3c2c2c1CCC2` here?
The value was inactive: 10.3% [at 57.5 µM].

For `CN(Cc1cn(C)nc1-c1ccc(Oc2ccccc2)cc1)Cc1cnc2ccccn12`, which Potency is on record?
Its Potency is inconclusive [inhibitor, partial curve].

Which Potency does the source give for `O=C(CCCN1C(=O)c2cccc3cccc(c23)C1=O)N1CCN(c2ccc(F)cc2)CC1` here?
The Potency was inconclusive [inhibitor, single point].

Which Potency does the source give for `CCN(CC)S(=O)(=O)c1ccc(C(=O)Nc2ccc(Cc3ccncc3)cc2)cc1` here?
The Potency was inconclusive [inhibitor, single point].

With `CCCCCCCCCCCCC/C=C/[C@@H](O)[C@@H](N)CO` as the molecule, how does the Potency read?
Its Potency is inconclusive [inhibitor, partial curve].

Which Potency does the source give for `O=[N+]([O-])c1ccc(N2CCOCC2)cc1NC(c1ccccc1)c1ccccc1` here?
Its Potency is inconclusive [inhibitor, partial curve].

With `CC1=C(C(=O)OCc2ccccc2)C(c2ccc(-c3ccccc3)cc2)NC(=O)N1CCCCCC(=O)O` (stereo not drawn) as the molecule, how does the Potency read?
The Potency was inconclusive [inhibitor, partial curve].

Which “activity change, negative = inhibition” value does the source give for `Cc1ccc(S(=O)(=O)N2CCOCC2)cc1NC(=O)CSc1nnc2cc(C)c3ccccc3n12` here?
The value was inactive: -3.75%.

For `COc1ccc2c(c1)O[C@@H](c1cccc(C(F)(F)F)c1)[C@H](OC(=O)NCc1ccco1)C2=O`, which “activity change, negative = inhibition” value is on record?
The value was inactive: 2.26%.

With `COc1ccccc1C1=NC(c2ccc(C)cc2)N=C1C` (stereo not drawn) as the molecule, how does the Potency read?
Its Potency is inconclusive [inhibitor, single point].

For `COC(=O)c1ccc(/C=N/N2CCN(Cc3ccccc3Cl)CC2)cc1`, which Potency is on record?
The Potency was inconclusive [inhibitor, partial curve, poor fit].

For `CC(C)(C)C(=O)NC(c1ccc(Cl)cc1)[C@]1(C)C[C@H]1C1CCCCC1` (stereo partly drawn), which “activity change, negative = inhibition” value is on record?
The value was inactive: 0.314%.

With `O=C(O)C1Nc2c(O)cc(Cl)c([N+](=O)[O-])c2C2C=CCC12` (stereo not drawn) as the molecule, how does the “activity change, negative = inhibition” value read?
The value was inactive: -2.07%.

Which Potency does the source give for `COc1cc(CNc2ccc(N3CCN(C(C)=O)CC3)cc2)ccc1OCc1ccc(F)cc1` here?
The Potency was inconclusive [inhibitor, partial curve, poor fit].

With `O=C(O)c1ccc(NC2=C(Cl)C(=O)c3ccccc3C2=O)cc1` as the molecule, how does the Potency read?
The Potency was active: 10 µM.

Which Potency does the source give for `CCCOc1ccc(/C(O)=C2/C(=O)C(=O)N(CCN(C)C)C2c2ccc(OC)c(OC)c2)cc1` (stereo not drawn) here?
The Potency was inconclusive [inhibitor, single point].

For `COc1ccc2[nH]c3c(N4CCc5ccccc5C4)ncnc3c2c1`, which Potency is on record?
Its Potency is active: 31.6 µM.
